Data as given in the RNAGym collection of RNA variant scans (doi:10.7554/elife.90254).
The source gives no read counts; variants with many changes may rest on few reads.

B1: LINE1-mini (parent)
chain: GGCAGAGCUCAACACAGCGUGGCAAAGUGGCUGUGGCUAGACUGCC

Variants of: B1
Assay: self-cleavage, relative activity (ratio to wild type); higher = more cleavage; in vitro, sequencing; the parent is a self-cleaving ribozyme
For GGCAGAGAUCAACACAGCGUGGCAAAGUGGCUGUAGCUCCACCGAG [C8A G35A A39C G40C U43C C45A C46G], the self-cleavage was 0.
GGCAGAGAUCAACACAGCGUGGCAAAGUGGCUGUGGCUAAAUUGCC [C8A G40A C42U] gave a self-cleavage of 0.06.
Work on GGCAGAGAUCAACACAGCGUGCCAAAGUCGCUGUGGCUAGACUGCC [C8A G22C G29C] yielded a self-cleavage of 0.16.
Work on GGCAGAGAUCAACACAGCGUGGUAAAGUGGCUUUGCCUAGACUGCC [C8A C23U G33U G36C] yielded a self-cleavage of 0.03.
For GGCAGAGAUCAACACAGCAUGGCAAAGUGGCUGUCGCUGGACUGCC [C8A G19A G35C A39G], the self-cleavage was 0.02.
In the case of GGCAGAGAUCAACACAGCGUGGUAAAGUGUCUGUGACUAGACUGCC [C8A C23U G30U G36A], the self-cleavage is reported as 2.5.
In the case of GGCAGAGAUCAACACAGCUUGUCAAAGUGGCUGUGGCUAGACUGCA [C8A G19U G22U C46A], the self-cleavage is reported as 0.39.
Variant GGCAGAGAUCAACACAGCGUGGCAAAGUGCCUGUGGCUAGGCUGCC [C8A G30C A41G] has a self-cleavage of 0.26.
For GGCAGAGAUCAACACAUCGUUGCAAAGCGGCUGUGGCUAGACUGCC [C8A G17U G21U U28C], the self-cleavage was 0.07.
With GGCAGAGAUCAACACAGCGUGGCAAAGUGGCUGUGGUUUGACUGCC [C8A C37U A39U] the self-cleavage was 0.29.
GGCAGAGAUCAACACAGCGUGGCAAAGUGGUUUUGGCUAGACUGCC [C8A C31U G33U] showed a self-cleavage of 0.17.
GGCAGAGAUCAACACAGCCUGGAAAAGUGGCUGUGGCUCGACUUCC [C8A G19C C23A A39C G44U] gave a self-cleavage of 0.06.
With GGCAGAGAUCAACACAGCGUGGUAAAGUGGCUGUGGCUAAACUGCC [C8A C23U G40A] the self-cleavage was 0.11.
In the case of GGCAGAGAUCAACACAGCUUGGCAAAGUGGCUGUAGCUAGACUGCC [C8A G19U G35A], the self-cleavage is reported as 0.15.
GGCAGAGAUCAACACAGCAUGGCAGAGUUGCUGUGGUUAGACUGCC [C8A G19A A25G G29U C37U] showed a self-cleavage of 0.29.
For GGCAGAGAUCAACACAGCCUGGCAAUGCGGCUGUGGCUAGACUGCC [C8A G19C A26U U28C], the self-cleavage was 0.05.
Variant GGCAGAGAUCAACACAUCGUGGUAAAGUGCCUGUGGCUAGACUGUC [C8A G17U C23U G30C C45U] has a self-cleavage of 0.35.
GGCAGAGAUCAACACAGCGUGGCAAAAUGGCUGUGGCUAGACUGUC [C8A G27A C45U] gave a self-cleavage of 0.65.
GGCAGAGAUCAACACAGCGUGGCAAAGUGGAUGCGGCUAGUCUGCC [C8A C31A U34C A41U] showed a self-cleavage of 0.23.
Variant GGCAGAGAUCAACACAGCGUUGCAAAGUGAGUGUGGCUAGACUGCC [C8A G21U G30A C31G] has a self-cleavage of 0.09.
Work on GGCAGAGAUCAACACAGCGUUGCAAAGUGGUUGUGGCUAGACUGCC [C8A G21U C31U] yielded a self-cleavage of 0.09.
GGCAGAGAUCAACACAUCGUGGCAAAGGGGCUGUGUCUAGACUGCC [C8A G17U U28G G36U] showed a self-cleavage of 0.31.
GGCAGAGAUCAACACAGCGUGGCAAAGUGGCUUUGGCUAGACUGUC [C8A G33U C45U] gave a self-cleavage of 0.55.
With GGCAGAGAUCAACACAGCUUGGCAAUGUAGCUGUGGCUAGACCGCC [C8A G19U A26U G29A U43C] the self-cleavage was 0.07.
For GGCAGAGAUCAACACAGCGUGGCAAAGUGGUUGUGGCAAGACUGCC [C8A C31U U38A], the self-cleavage was 0.32.
Work on GGCAGAGAUCAACACAGCGUGACAAAGUGGCUGUGGGUAGACUGCC [C8A G22A C37G] yielded a self-cleavage of 0.01.
Work on GGCAGAGAUCAACACAACGUGGCAAAGUGGCUGGGGCUAGACUGCC [C8A G17A U34G] yielded a self-cleavage of 0.18.
In the case of GGCAGAGAUCAACACAUCGUGACAAAGUGGCUGUGCCUAGACUGCC [C8A G17U G22A G36C], the self-cleavage is reported as 0.12.
Work on GGCAGAGAUCAACACAGUGAGACAAAGUGGCUGUGGCUAGACUGCA [C8A C18U U20A G22A C46A] yielded a self-cleavage of 0.25.
In the case of GGCAGAGAUCAACACAUCGUGGCAAAGUGGCUGUGGCUCUACUGCC [C8A G17U A39C G40U], the self-cleavage is reported as 0.06.
GGCAGAGAUCAACACAGCGUGGAAAAGUGGAUGUGGCUAGAAUGCC [C8A C23A C31A C42A] gave a self-cleavage of 0.18.
GGCAGAGAUCAACACAGCAUGGCAAAGUAGUUGUGGCUAGACUGCC [C8A G19A G29A C31U] showed a self-cleavage of 0.29.
GGCAGAGAUCAACACAGCUUGCCAAAGUGGCUGUGGGUAGACUGCC [C8A G19U G22C C37G] showed a self-cleavage of 0.01.
GGCAGAGAUCAACACAGCGUUGCAAUGUGGCCGUGGCUAGACUGCC [C8A G21U A26U U32C] showed a self-cleavage of 0.09.
GGCAGAGAUCAACACAGCGUGGCAAAGUGGCUGUGGCUACUCUUCC [C8A G40C A41U G44U] gave a self-cleavage of 0.28.
GGCAGAGAUCAACACAGCGUGGCAAAGUGGCUGUGGUUAGACUUCC [C8A C37U G44U] gave a self-cleavage of 0.17.
GGCAGAGAUCAACACAACGUGGCAAAGUGGCUGGGGCUAGACUCCC [C8A G17A U34G G44C] gave a self-cleavage of 0.34.
Variant GGCAGAGAUCAACACAGCGUCGCAAAGUGGCUGAGGCUAGACUGCC [C8A G21C U34A] has a self-cleavage of 0.17.
GGCAGAGAUCAACACAGCGUGGCAAAGUGGAUGUGGCUAGACUGCU [C8A C31A C46U] gave a self-cleavage of 0.03.
GGCAGAGAUCAACACAACGUGGCAAAGUGGCUGUGGCCAGACUGCC [C8A G17A U38C] showed a self-cleavage of 0.06.
For GGCAGAGAUCAACACAGCGUGGCAAAAUGGCUGUGGCUAGACGACC [C8A G27A U43G G44A], the self-cleavage was 0.25.
Work on GGCAGAGAUCAACACAGCGUGGAAAAGUUGCUGUGGCUUGACUGCC [C8A C23A G29U A39U] yielded a self-cleavage of 0.1.
Variant GGCAGAGAUCAACACAGCGUGACAAAGUGGCUGUGGCUAGACUGCG [C8A G22A C46G] has a self-cleavage of 0.29.
Work on GGCAGAGAUCAACACAGCGUGACAAAGUGGCUGUGGCUAGACUGCA [C8A G22A C46A] yielded a self-cleavage of 0.21.
With GGCAGAGAUCAACACAGCGUGGAAAAUUGGCUGUGGCUAGUCUGCC [C8A C23A G27U A41U] the self-cleavage was 0.04.
For GGCAGAGAUCAACACAACGUGGCAAAGUGGCGGUGGCUAGACUGCG [C8A G17A U32G C46G], the self-cleavage was 0.08.
With GGCAGAGAUCAACACAGCGUGGAAAAGUGGUUGUCGCUAGACUGCC [C8A C23A C31U G35C] the self-cleavage was 0.14.
Variant GGCAGAGAUCAACACAGCGUGGCAAAGUGUCUGUGGCUAUACUGCC [C8A G30U G40U] has a self-cleavage of 0.1.
For GGCAGAGAUCAACACAGCGUGGUAAUGUGGCUGUGGCGAGGCUGCU [C8A C23U A26U U38G A41G C46U], the self-cleavage was 0.02.
For GGCAGAGAUCAACACAGCCUGGCAAAGUGGCUCUGGCUAGACAGCA [C8A G19C G33C U43A C46A], the self-cleavage was 0.15.
GGCAGAGAUCAACACAGCGUAGCAAAGUGGCUGUGUAUAGACUGGG [C8A G21A G36U C37A C45G C46G] showed a self-cleavage of 1.16.
Work on GGCAGAGAUCAACACAGCGUAGCAAUGCGGCUGUGGCUAGACUGCC [C8A G21A A26U U28C] yielded a self-cleavage of 0.11.
Variant GGCAGAGAUCAACACAGCGUGGCAAAGUGGGUGUGGAUAGACUGCC [C8A C31G C37A] has a self-cleavage of 0.02.
For GGCAGAGAUCAACACAGCGUGACAAAGUAGCUGUGGCUAGACUGCC [C8A G22A G29A], the self-cleavage was 0.06.
Variant GGCAGAGAUCAACACAGCGUCGCAAAGUGGCUGUGGCAAGACUGCC [C8A G21C U38A] has a self-cleavage of 0.64.
In the case of GGCAGAGAUCAACACAUCGUGGCAAAGUGGCUGUGGCUAAACUGCC [C8A G17U G40A], the self-cleavage is reported as 0.24.
